Assay results as given in the supplement of paper PMC3334620.
In all, about 33,000 sequences were measured (“E-score (-0.5 to 0.5)”: median about -0.035, highest 2% from about 0.35 on). Some of the results follow.

Target: T1, Pdr3 (UniProt P33200)
T1 sequence: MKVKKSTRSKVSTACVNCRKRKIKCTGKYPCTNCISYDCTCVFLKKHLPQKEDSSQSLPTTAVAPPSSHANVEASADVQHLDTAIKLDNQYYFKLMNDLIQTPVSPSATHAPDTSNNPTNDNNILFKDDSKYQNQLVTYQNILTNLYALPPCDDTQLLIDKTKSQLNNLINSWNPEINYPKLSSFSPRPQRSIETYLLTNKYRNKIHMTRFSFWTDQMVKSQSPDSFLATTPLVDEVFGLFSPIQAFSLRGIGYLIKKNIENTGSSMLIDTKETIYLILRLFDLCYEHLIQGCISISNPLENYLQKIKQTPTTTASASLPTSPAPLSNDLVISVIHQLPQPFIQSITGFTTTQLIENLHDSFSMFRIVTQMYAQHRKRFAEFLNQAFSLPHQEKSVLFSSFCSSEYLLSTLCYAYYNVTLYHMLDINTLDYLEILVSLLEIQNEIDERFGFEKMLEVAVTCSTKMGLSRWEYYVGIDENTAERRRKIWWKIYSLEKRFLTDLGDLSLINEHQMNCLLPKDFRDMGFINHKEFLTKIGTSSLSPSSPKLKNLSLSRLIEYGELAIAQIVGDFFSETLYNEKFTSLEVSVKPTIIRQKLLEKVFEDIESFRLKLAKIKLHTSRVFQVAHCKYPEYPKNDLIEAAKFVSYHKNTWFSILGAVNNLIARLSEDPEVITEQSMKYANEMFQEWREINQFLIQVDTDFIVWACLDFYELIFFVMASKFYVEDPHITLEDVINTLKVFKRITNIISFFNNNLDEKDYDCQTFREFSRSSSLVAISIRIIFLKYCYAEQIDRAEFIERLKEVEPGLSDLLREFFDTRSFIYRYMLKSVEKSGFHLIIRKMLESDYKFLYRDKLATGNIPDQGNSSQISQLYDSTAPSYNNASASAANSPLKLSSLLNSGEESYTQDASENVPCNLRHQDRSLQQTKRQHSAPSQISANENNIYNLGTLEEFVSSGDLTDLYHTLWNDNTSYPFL
Assay: PBM E-score (8-mer binding enrichment) (E-score (-0.5 to 0.5)); higher = stronger / more preferred TF binding; most listed sequences are background and not binding sites
Details: protein concentration: 200 nM; construct: GST-full length
How it was run: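 For each ungapped eight-base word taken together with its reverse complement, the Universal PBM Analysis Suite assigned an E-score. Binding data came from GST-tagged yeast transcription factors, applied at about 100-200 nM, on universal all-10-mer Agilent arrays made double-stranded by primer extension. Fluorescent anti-GST marked bound protein, and scans were normalised with masliner.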

Sequence | PBM E-score
CGATGTAC | -0.0342
CTAAGCGC | -0.166
CAGCCTGC | -0.341
CAGATTAA | 0.0912
AACCGTAA | -0.0242
GTCTGAAA | -0.00329
ACCCCAGA | -0.172
AGCTGCCG | 0.104
AGACCCAG | -0.108
GTCTACAA | -0.284
ACCCGCCA | 0.0368
CTCGGACC | 0.359
GAATAATC | 0.0628
AGATTAAT | 0.00312
CCCACGGA | 0.424
AAGGGTGT | -0.0354
ATGGTACG | -0.0722
GGTCTCAC | -0.0581
AATACGGA | 0.351
GGCGCCTA | -0.0415
CTTTGTTC | 0.219
AACGAGAG | 0.0146

Sequence | PBM E-score
TAGAGCTA | -0.304
CATGATAG | -0.135
CAAAGCGA | -0.119
CCTTGCTC | -0.0469
CGAACTTC | -0.0354
AATTCGTG | 0.0172
ATGCACAC | 0.0155
ACCGCGCC | 0.128
AGTGAACC | 0.116
CACGAAAG | -0.0162
GTCTTAAA | -0.161
CATACGTC | -0.234
GACTGTCA | -0.104
CAAGGGAA | -0.144
CTTTAATC | -0.0298
CAGAAGTC | -0.203
TATAGCAA | -0.0593
CGCCGGAA | 0.45
AACCTTGA | -0.00866
ACCGGCCT | 0.0753
CTGTCCCC | -0.0565
GACACCAA | 0.0643

Sequence | PBM E-score
ATAATCTA | 0.0572
GGCGTCCC | 0.00409
CGCCCTAA | -0.138
CAGCCAGC | -0.164
ATAAGACC | -0.0803
CAGAGCAA | -0.0115
CCGGAACC | 0.476
CATGACTC | -0.343
CTGGTGCA | -0.256
GATTATAC | 0.183
AAGCCAGG | -0.149
ATCCCCGC | 0.353
CTACTCGC | 0.0561
TGCTGCAA | -0.153
CCGACCAG | 0.102
ATAGGTGA | -0.188
AAATCTAT | -0.00749
GCCCATAC | -0.104
TGGCGGAA | 0.359
TCCCCCAA | -0.313
ACCGGAAA | 0.405
GGATTTAA | 0.147

Sequence | PBM E-score
CTGTGATC | 0.0396
AGATGCTG | -0.117
GCGTGCCC | -0.0178
GAAAGGTA | -0.0117
CTATCAAA | 0.048
CTCCGGGC | 0.236
CCCCGAGC | 0.0663
TCAAGCCA | -0.171
GCAGCTGC | 0.219
TCGGCGCA | 0.181
AAAAACCC | -0.0297
CTAGTGTA | -0.262
GATGCTCC | 0.232
CCTACGAG | -0.131
CCTAGAGA | -0.218
GGGCGCCA | 0.195
CCACCCTA | -0.0335
CCATTTCG | -0.0848
GACTCGGA | 0.39
GGTCTGAC | 0.00827
